# Data: article PMC4336329 (PLoS ONE, 2015)
# Among all 310,000 compounds or so, about 2,200 (0.71%) showed an effect of 50% or more. The effect is printed as a negative number. The list shows a part of the results.
# Biological target: human ether-à-go-go-related gene (hERG) potassium channel (human, UniProt Q12809)
# Test: primary screen, population patch clamp on CHO cells stably expressing hERG
# Chain of human ether-à-go-go-related gene (hERG) potassium channel (Q12809 whole entry, looked up): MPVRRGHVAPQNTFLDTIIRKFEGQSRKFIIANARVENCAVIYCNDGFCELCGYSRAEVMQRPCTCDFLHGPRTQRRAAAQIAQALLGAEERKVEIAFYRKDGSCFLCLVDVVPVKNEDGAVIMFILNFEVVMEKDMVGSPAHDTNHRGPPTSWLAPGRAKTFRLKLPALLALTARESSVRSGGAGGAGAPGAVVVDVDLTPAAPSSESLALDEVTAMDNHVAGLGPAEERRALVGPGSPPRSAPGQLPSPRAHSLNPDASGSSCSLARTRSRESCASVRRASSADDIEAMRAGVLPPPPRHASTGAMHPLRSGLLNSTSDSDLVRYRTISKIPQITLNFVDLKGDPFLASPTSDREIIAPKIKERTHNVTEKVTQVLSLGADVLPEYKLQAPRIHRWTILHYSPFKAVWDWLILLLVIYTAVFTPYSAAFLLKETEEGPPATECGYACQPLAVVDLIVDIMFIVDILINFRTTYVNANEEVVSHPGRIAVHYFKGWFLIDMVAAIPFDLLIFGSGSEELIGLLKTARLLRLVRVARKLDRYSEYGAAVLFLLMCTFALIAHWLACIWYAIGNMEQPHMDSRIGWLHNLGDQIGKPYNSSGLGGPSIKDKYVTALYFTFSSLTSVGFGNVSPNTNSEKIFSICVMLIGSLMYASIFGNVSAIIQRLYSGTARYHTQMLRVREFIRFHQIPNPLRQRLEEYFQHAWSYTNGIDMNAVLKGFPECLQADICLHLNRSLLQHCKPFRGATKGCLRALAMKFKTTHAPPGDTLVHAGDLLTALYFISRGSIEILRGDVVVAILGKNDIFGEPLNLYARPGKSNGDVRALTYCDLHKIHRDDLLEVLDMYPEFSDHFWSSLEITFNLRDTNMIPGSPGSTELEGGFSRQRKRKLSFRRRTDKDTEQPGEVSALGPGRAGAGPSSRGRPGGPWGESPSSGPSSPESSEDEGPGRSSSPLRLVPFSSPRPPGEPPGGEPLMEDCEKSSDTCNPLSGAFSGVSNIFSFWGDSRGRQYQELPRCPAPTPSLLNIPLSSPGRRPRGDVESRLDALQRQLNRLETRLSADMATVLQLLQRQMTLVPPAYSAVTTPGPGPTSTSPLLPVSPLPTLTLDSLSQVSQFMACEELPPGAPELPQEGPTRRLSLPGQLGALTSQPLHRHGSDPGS
row,Structure (SMILES),"hERG current change (%, negative = inhibition) at 1uM"
1,COC(=O)c1ccc(C(=O)NCCCCO)cc1,7.1%
2,Cc1cc(NC(=O)CSc2cc(Cl)ccc2Cl)n(-c2ccccc2)n1,7.36%
3,C[C@]12C=CC(=O)C=C1CCC1C3CC[C@](O)(C(=O)CO)[C@@]3(C)CC3OC312 (stereo partly drawn),10.7%
4,N#C/C(=C/C=C/c1ccccc1)C(=O)Nc1ccccc1,5.83%
5,CS(=O)(=O)c1cccc(C(=O)N(CCc2ccccc2)Cc2cccs2)c1,-14.9%
6,CCC(=N\NC(=O)COc1ccccc1OC)/C(CC)=N/NC(=O)COc1ccccc1OC,17.6%
7,O=C(NCc1ccco1)c1cc(C(=O)C2CCCCC2)c[nH]1,16.9%
8,O=C1/C(=C/c2ccncc2)N=C2CCCCCN12,0.473%
9,Cc1ccc(C)c(SCC(=O)OCC(=O)c2ccco2)c1,11%
10,Cc1ccc(C(=O)NCc2cccnc2)cc1S(=O)(=O)N1CCCCCC1,-14.3%
11,C[C@@H](NC(=O)OC(C)(C)C)C(=O)NCC1CCC(C(=O)N[C@@H](Cc2ccccc2)C(=O)O)CC1 (stereo partly drawn),9.23%
12,Cc1ccc(O)c(-c2cc(C(F)(F)C(F)F)nc(-c3ccccc3)n2)c1,9.55%
13,Cc1ccsc1C(C(=O)NC1CCCCC1)N(C(=O)c1csnn1)C1CC1 (stereo not drawn),9.66%
14,CCCN(CCC)c1cc(Cl)nc(N)n1,6.41%
15,COc1ccc(/C=N/Nc2cc(C)nc3ccc(Br)cc23)cc1,1.03%
16,CC(=O)N1CCN(c2ccc(NC(=S)NC(=O)c3ccc(C)c([N+](=O)[O-])c3)cc2)CC1,11.7%
17,CC1CCCCC1NCC(=O)NCc1ccc(F)cc1.O=C(O)C(=O)O (stereo not drawn),7.92%
18,COc1ccc(C2=CC(c3ccc(Cl)cc3)n3cnnc3N2)cc1OC (stereo not drawn),2.53%
19,Cc1cc(C)c(NC(=O)COC(=O)c2cccc3c2C(=O)c2ccccc2C3=O)c(C)c1,12.9%
20,CCCn1c(SC(C)C(=O)NCC2CCCO2)nc2sc(CC)cc2c1=O (stereo not drawn),3.13%
21,O=S(=O)(c1ccccc1)N1CCC2(CC1)CO2,8.02%
22,COc1cccc2sc(N(C)c3ccccc3)nc12,15.3%
23,O=C(CCC(=O)NNC(=O)Cc1ccccc1)NCc1ccccc1,13.7%

row,Structure (SMILES),"hERG current change (%, negative = inhibition) at 1uM"
1,O=C1c2ccccc2-c2c1nc1c([n+]2[O-])CCCC1,11%
2,O=C(NCCc1ccccc1)c1n[nH]c(=O)c2ccccc12,5.75%
3,CCO[C@@H]1OC(C(=O)NC2CC2)=C[C@H](c2coc3ccccc3c2=O)[C@H]1CCCO,7.01%
4,O=C(NC(Cc1ccc(O)cc1)C(=O)O)/C(=C/c1ccccc1)NC(=O)c1ccccc1 (stereo not drawn),11.4%
5,CC1(C)N=C(N)NC(Nc2cccc(Br)c2)=N1,7.11%
6,CC(=O)NC(=O)COC(=O)/C=C/c1c(C)nn(Cc2c(Cl)cccc2Cl)c1Cl,-1.17%
7,O=C(O)c1ccc(Cl)c(S(=O)(=O)NC(Cc2ccccc2)C(=O)O)c1 (stereo not drawn),13.3%
8,COc1ccc(C(=O)OCC(=O)Nc2c(C)cccc2C)cc1,15.3%
9,COc1ccc2nc(NC(=O)CSc3nc(C)cc(C)n3)sc2c1,-4.47%
10,O=C(COC(=O)c1n[nH]c2ccccc12)c1cccc(Br)c1,13.3%
11,O=C(C1CC1)N1N=C(c2ccc(F)cc2)CC1(O)C(F)(F)F (stereo not drawn),12.8%
12,COc1ccc(OCC(=O)OCC(=O)NC2CCCCC2C)cc1 (stereo not drawn),9.61%
13,COc1ccc(C(=O)O)cc1S(=O)(=O)NCCCN1CCCC1=O,17.2%
14,Cc1ccc(C(=O)NNC(=S)NC(=O)c2ccco2)cc1,12.9%
15,CC(Oc1ccc(-c2nccc(-c3ccccn3)n2)cc1)C(=O)NN (stereo not drawn),6.48%
16,O=C(Nc1ncc2c(n1)CC(c1ccco1)CC2=O)c1ccco1 (stereo not drawn),5.09%
17,Cc1ccc(S(=O)(=O)NCCCCCC(=O)Nc2nccs2)cc1,1.11%
18,Cc1cc(C(F)(F)F)nn1C(=O)c1cccnc1Cl,2.82%
19,C/C=C/c1ccc(OCC(=O)OCC)c(OC)c1,5.3%
20,NC(=O)CSCc1ccc(Br)cc1,12.6%
21,COCCNc1cc(N)c([N+](=O)[O-])cc1[N+](=O)[O-],-4.4%
22,CN(C1CC(C)(C)NC(C)(C)C1)S(=O)(=O)CC12CCC(CC1=O)C2(C)C.Cl (stereo not drawn),6.67%
